{"source": "PubChem BioAssay AID1345083", "about": "(National Center for Advancing Translational Sciences (NCATS), 2018)", "note": "In all, about 94,000 compounds went through this assay and about 6,200 (6.6%) were called active. Inconclusive means that the source gave no clear call. Such entries were picked first, then a sample of the others. Calls follow the shape of the dose curve; as a rule, active = well fitted inhibition curve with a large enough effect; inconclusive = small, poorly fitted or top-dose-only effect; inactive = flat fitted curve, though single readings scatter. A potency beside an inconclusive call is a rough fit, not a confirmed value. % is scaled to controls: 0 for no effect and ±100 for the full control effect; potency is read from the fitted curve at half-maximal effect; tags tell the direction and shape of the fitted curve."}
{"test": "Cytotoxic Profiling in HEK 293 Cell Line of Diverse Libraries Using Quantitative High-Throughput Screening; also: nearly all actives have a fitted effect of over 60% in size", "conditions": "HEK 293 viability, ATP luminescence (CellTiter-Glo), 48-72 h; activity change, negative = cytotoxicity: at 115 µM (top of the series) unless noted; series mostly up to 115 µM", "method_in_brief": "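HEK 293 seeded at 250 cells/well receive compound via pintool. After 48 or 72 hr at 37 degree Celsius, 5% CO2 and 95% humidity, CellTiter-Glo is dispensed and luminescence read following 10 min at room temperature.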"}
{"smiles": "CCc1csc(CNC(=O)c2ccc(N(C)Cc3nonc3C)nc2)n1", "Potency": "inactive"}
{"smiles": "COCCn1c(C)cnc1CC1CCCN(S(=O)(=O)c2cccc(F)c2)C1", "note": "(stereo unspecified)", "Potency": "inconclusive: 50.1 µM [inhibitor, partial curve, poor fit]"}
{"smiles": "COCCN(C)C[C@H]1C[C@H](CO)CN(C(=O)c2cc3ccccc3s2)C1", "Potency": "inactive"}
{"smiles": "C#CCN(CC=C)Cc1cnc(S(=O)(=O)CC2CCCCC2)n1CCOC", "Potency": "inconclusive: 56.2 µM [inhibitor, partial curve, poor fit]"}
{"smiles": "CC(C)(C)C1CCC2(CC1)NC(=O)N(CC(=O)NCc1ccccc1)C2=O", "note": "(stereo unspecified)", "Potency": "inconclusive: 79.4 µM [inhibitor, single point]"}
{"smiles": "COc1cccc(CNc2cc(Cl)nc3ccnn23)c1", "Potency": "inconclusive: 17.8 µM [inhibitor, partial curve, poor fit]"}
{"smiles": "Cc1cccc(NC(=O)c2ccc3c(c2)N(C)C2CCCCN2C3=O)c1", "note": "(stereo unspecified)", "Potency": "inconclusive: 50.1 µM [inhibitor, partial curve, poor fit]"}
{"smiles": "O=C1CC[C@@H](CN(Cc2ccncc2)C(=O)c2ccc3nccn3c2)N1", "Potency": "inactive"}
{"smiles": "O=C(CC1CCCCC1)N1CCN(C2CCN(CCc3ccccc3)C2=O)CC1", "note": "(stereo unspecified)", "activity change, negative = cytotoxicity": "inconclusive: -36.2% [inhibitor]"}
{"smiles": "CC(C)[C@@H]1CN(C(=O)CCCS(N)(=O)=O)C[C@H]1C(=O)O", "Potency": "inactive"}
{"smiles": "CCCCCNC(=O)c1cc(-c2cccc(C(F)(F)F)c2)nc2c1cnn2C", "Potency": "inactive"}
{"smiles": "COCC1CN(C)CC12CCN(S(=O)(=O)Cc1ccc(F)cc1)CC2", "note": "(stereo unspecified)", "Potency": "inconclusive: 50.1 µM [inhibitor, partial curve, poor fit]"}
{"smiles": "CN(CCO)C[C@@H]1CN(C(=O)c2cnc3sccn3c2=O)C[C@@H]1CO", "Potency": "inactive"}
{"smiles": "COc1ccccc1C(=O)N1CCN(c2cc(-c3ccc(F)cc3)[nH]n2)CC1", "Potency": "inconclusive: 50.1 µM [inhibitor, partial curve, poor fit]"}
{"smiles": "CCCN(C)C(=O)Cc1ccc(N(Cc2ccccc2)C(=O)c2ccco2)cc1", "Potency": "inconclusive: 56.2 µM [inhibitor, partial curve, poor fit]"}
{"smiles": "CN(C)[S+](=O)([O-])c1ccc2c(c1)OCCN(Cc1cc(F)ccc1F)C2", "Potency": "inconclusive: 63.1 µM [inhibitor, partial curve, poor fit]"}
{"smiles": "O=C(Cc1ccccc1Cl)NC1CCN(c2cc(C(F)(F)F)ncn2)CC1", "Potency": "inconclusive: 12.6 µM [inhibitor, partial curve, poor fit]"}
{"smiles": "COCc1noc(CCNC(=O)C2CC3(CCNCC3)CN2)n1", "note": "(stereo unspecified)", "Potency": "inactive"}
{"smiles": "C(=C\\c1ccccc1)/CN1CCN(Cc2nc(COc3ccccc3)no2)CC1", "Potency": "inconclusive: 50.1 µM [inhibitor, partial curve, poor fit]"}
{"smiles": "O=C(NC1CCCC1)N1CCCC(C(=O)N2CCC(c3nc4ccncc4[nH]3)CC2)C1", "note": "(stereo unspecified)", "Potency": "inactive"}
{"smiles": "Cc1cccc(NC(=O)c2cc3n(n2)CC(c2ccc4c(c2)OCO4)OC3)c1", "note": "(stereo unspecified)", "Potency": "inconclusive: 70.8 µM [inhibitor, partial curve, poor fit]"}
{"smiles": "COc1ccc(-c2cc(N3CCCC(NC(=O)Cc4cccs4)C3)n[nH]2)cc1", "note": "(stereo unspecified)", "Potency": "inconclusive: 50.1 µM [inhibitor, partial curve, poor fit]"}
{"smiles": "COc1ccc(F)cc1-c1cccc(C(=O)NCCNC(=O)Cc2cccc(Cl)c2)c1", "Potency": "inconclusive: 44.7 µM [inhibitor, partial curve, poor fit]"}
{"smiles": "CNC(=O)c1cn2cc(-c3ccccc3)sc2n1", "Potency": "inconclusive: 50.1 µM [inhibitor, partial curve, poor fit]"}
{"smiles": "CCC1=C(C(=O)OC)C(c2ccccc2)N2C(CC(=O)NCCc3cccs3)=CSC2=N1", "note": "(stereo unspecified)", "Potency": "inconclusive: 89.1 µM [inhibitor, single point]"}
{"smiles": "COc1ccc(NC(=O)c2cnc3c(c2)N(C(=O)Cc2cccc(C(F)(F)F)c2)CCC3)cn1", "Potency": "inconclusive: 56.2 µM [inhibitor, partial curve, poor fit]"}
{"smiles": "Cc1ccc(S(=O)(=O)N2CCN(C3CCN(CCc4ccccc4)C3=O)CC2)cc1", "note": "(stereo unspecified)", "Potency": "inconclusive: 89.1 µM [inhibitor, single point]"}
{"smiles": "CCS(=O)(=O)N1CCCCCCNC(=O)[C@@H]2C[C@@H](C(=O)N3CCc4ccccc4C3)C[C@@H]21", "Potency": "inconclusive: 7.94 µM [inhibitor, full curve, poor fit]"}
{"smiles": "CCn1cc(S(=O)(=O)N2C[C@@H](Oc3cccnc3)C[C@H]2C(N)=O)cn1", "Potency": "inactive"}
{"smiles": "Cc1ccc(C(=O)N2CCC3(CC2)N=C(c2ccc(Cl)cc2)NO3)cc1F", "Potency": "inconclusive: 50.1 µM [inhibitor, partial curve, poor fit]"}
{"smiles": "COc1cc2cc(CN3CCC(N(C)C)C3)c(-c3cccc(Cl)c3)nc2cc1OC", "note": "(stereo unspecified)", "Potency": "inconclusive: 50.1 µM [inhibitor, partial curve, poor fit]"}
{"smiles": "CCNC(=O)N(C1CC1)C1CCOC2(CCN(C(=O)c3ccc(OC)nc3)CC2)C1", "note": "(stereo unspecified)", "Potency": "inactive"}
{"smiles": "O=C(NCCCc1ccccc1)c1ccc2nnc(-c3cncc(Cl)c3)n2c1", "Potency": "inconclusive: 50.1 µM [inhibitor, partial curve, poor fit]"}
{"smiles": "COc1cccc(NC(=O)c2cnc3c(c2)N(C(=O)Cc2ccc(C(C)C)cc2)CCC3)c1", "Potency": "active: 22.4 µM"}
{"smiles": "CCOc1ccccc1NC(=O)N1CCCC(Cc2ncc(C)n2C(C)C)C1", "note": "(stereo unspecified)", "Potency": "inconclusive: 56.2 µM [inhibitor, partial curve, poor fit]"}
{"smiles": "Cc1nn(C)c(C)c1CCC(=O)NCCc1ncc(C)n1C1CC1", "Potency": "inactive"}
{"smiles": "Fc1ccc(-c2nc(CC3CCNC3)no2)cc1", "note": "(stereo unspecified)", "Potency": "inactive"}
{"smiles": "CC(C)(C)c1cc(C[C@@H]2CC[C@H](O)[C@@H](CNC3CCNCC3)O2)no1", "Potency": "inconclusive: 126 µM [inhibitor, single point]"}
{"smiles": "O=C1CCCCC(Cc2ccccc2)(C(=O)NCc2ccc(Cl)cc2)N1", "note": "(stereo unspecified)", "Potency": "inconclusive: 89.1 µM [inhibitor, partial curve, poor fit]"}
{"smiles": "O=C(NCC1CCN(c2cc(-c3ccc(Cl)cc3)[nH]n2)CC1)c1ccc(=O)[nH]c1", "Potency": "inactive"}
{"smiles": "CNC(=O)c1cc(C2CC2)nc2c1c(C1CCCN1C(=O)c1ccc(F)cc1)nn2C", "note": "(stereo unspecified)", "Potency": "inactive"}
